Laboratory results reported in US8058243B2, “Method for treating a brain cancer with ifenprodil” (HSC Research and Development Limited Partnership, priority 2006, dated 2011).

System: normal astrocytic GFAP expressing cell line C8-D1A
Assay: Astrocyte screen and neurosphere selectivity assessment (MTT dose-response)
Format: cell-based, mouse
Conditions: not given
Procedure: Astrocyte Screen and Neurosphere Selectivity Assessment. […] Murine Medulloblastoma Generation and Culture. […] Flow Cytometry. […] Results
To verify hits from the primary screen, a representative sample of candidate agents from each pharmacological class were retested at the original screen concentration of 3 μM. […] Because other neural cell types such as astrocytes are known to express and signal through neurotransmitter receptors (17), a counter-screen was performed in a proliferating normal mouse astrocyte cell line to assess the selectivity and potency of each agent for neurosphere cultures. It was reasoned that this counter-screen would allow not only the identification of small molecules that were specific for signaling pathways present in neural precursors, but it would also help rule out non-specific cytotoxic agents.

For “(R)-(−)-Propylnorapomorphine [(R)-(−)-Propylnorapomorphine (5)]”, the “Neurosphere Selectivity” value was 23.4.

For “(R)-(−)-Propylnorapomorphine [(R)-(−)-Propylnorapomorphine (5)]”, the “Neurosphere Specificity” value was 23.4.

Same assay, conditions: C8-D1A astrocytes, MTT; read-out: Astrocyte EC50

In order of rising EC50:
1. N.N.O=C([O-])C1(C(=O)[O-])CCC1.[Pt+2] [Carboplatin (3), Carboplatin]  2.45 µM
2. (R)-(−)-Propylnorapomorphine [(R)-(−)-Propylnorapomorphine (5)]  8.23 µM

Same assay, conditions: EC50 (astrocytes)/EC50 (neurospheres), Table 8

In order of falling “Neurosphere Selectivity” value:
1. CC(C(O)c1ccc(O)cc1)N1CCC(Cc2ccccc2)CC1 (centres unmarked) [Ifenprodil (9), Ifenprodil]  17.9
2. O[Si](CCCN1CCCCC1)(c1ccc(F)cc1)C1CCCCC1 (centres unmarked) [p-F-HHSiD (8), p-fluoro-hexahydrosila-difenidol]  13.2
3. Oc1ccc(-c2nc(-c3ccc(F)cc3)c(-c3ccncc3)[nH]2)cc1 [SB 202190 (13)]  8.04
4. CC1=C(/C=C/C(C)=C/C=C/C(C)=C/C(=O)Nc2ccc(O)cc2)C(C)(C)CCC1 [Fenretinide (11), Retinoic acid p-hydroxyanilide]  7.18
5. CN1CCN(c2nc3cc(C(F)(F)F)ccc3n3cccc23)CC1.O=C(O)/C=C\C(=O)O [CGS-12066A (40)]  7.17
6. Cl.Cl.OCCN1CCN(CC/C=C2/c3ccccc3Sc3ccc(C(F)(F)F)cc32)CC1 [cis-(Z)-Flupenthixol (7), cis-(Z)-Flupenthixol]  5.93
7. N.N.O=C([O-])C1(C(=O)[O-])CCC1.[Pt+2] [Carboplatin (3), Carboplatin]  5.08
8. CC(C)COCC(CN(Cc1ccccc1)c1ccccc1)N1CCCC1 (centres unmarked) [Bepridil (28), Bepridil]  1.75
9. COc1cc([C@@H]2c3cc4c(cc3[C@@H](O[C@@H]3O[C@@H]5CO[C@@H](C)O[C@H]5[C@H](O)[C@H]3O)[C@H]3COC(=O)[C@H]23)OCO4)cc(OC)c1O [Etoposide (2), Etoposide]  1.28
10. S=C=Nc1cccc(C2(N3CCCCC3)CCCCC2)c1 [Metaphit (35), Metaphit]  0.361

In the case of COc1cc2ncnc(Nc3ccc(O)cc3)c2cc1OC [WHI-P131 (12), 4-(4′-hydroxylphenyl)-amino-6,7-dimethoxyquinazoline], the “Neurosphere Selectivity” value is reported as greater than 10.

Same assay, conditions: EC50 astrocytes/EC50 neurospheres

In order of falling Neurosphere Selectivity:
1. (R)-(−)-Propylnorapomorphine [(R)-(−)-Propylnorapomorphine (5)]  23.4
2. CC(C(O)c1ccc(O)cc1)N1CCC(Cc2ccccc2)CC1 (centres unmarked) [Ifenprodil (9), Ifenprodil]  17.9
3. O[Si](CCCN1CCCCC1)(c1ccc(F)cc1)C1CCCCC1 (centres unmarked) [p-F-HHSiD (8), p-fluoro-hexahydrosila-difenidol]  13.2
4. Oc1ccc(-c2nc(-c3ccc(F)cc3)c(-c3ccncc3)[nH]2)cc1 [SB 202190 (13)]  8.04
5. CC1=C(/C=C/C(C)=C/C=C/C(C)=C/C(=O)Nc2ccc(O)cc2)C(C)(C)CCC1 [Fenretinide (11), Retinoic acid p-hydroxyanilide]  7.18
6. Cl.Cl.OCCN1CCN(CC/C=C2/c3ccccc3Sc3ccc(C(F)(F)F)cc32)CC1 [cis-(Z)-Flupenthixol (7), cis-(Z)-Flupenthixol]  5.93
7. N.N.O=C([O-])C1(C(=O)[O-])CCC1.[Pt+2] [Carboplatin (3), Carboplatin]  5.08
8. COc1cc([C@@H]2c3cc4c(cc3[C@@H](O[C@@H]3O[C@@H]5CO[C@@H](C)O[C@H]5[C@H](O)[C@H]3O)[C@H]3COC(=O)[C@H]23)OCO4)cc(OC)c1O [Etoposide (2), Etoposide]  1.28

COc1cc2ncnc(Nc3ccc(O)cc3)c2cc1OC [WHI-P131 (12), 4-(4′-hydroxylphenyl)-amino-6,7-dimethoxyquinazoline] was tested, and the Neurosphere Selectivity was greater than 10.

Same assay, conditions: EC50 astrocytes/EC50 precursor cells, Table 5

In order of rising “Neurosphere Specificity” value:
1. S=C=Nc1cccc(C2(N3CCCCC3)CCCCC2)c1 [Metaphit (35), Metaphit]  0.361
2. COc1ccccc1CNCCCCCCNCCCCCCCCNCCCCCCNCc1ccccc1OC [Methoctramine (31), Methoctramine]  0.802
3. Cc1cc(N)c2ccccc2[n+]1CCCCCCCCCC[n+]1c(C)cc(N)c2ccccc21 [Dequalinium (29), Dequalinium]  0.962
4. COc1cc([C@@H]2c3cc4c(cc3[C@@H](O[C@@H]3O[C@@H]5CO[C@@H](C)O[C@H]5[C@H](O)[C@H]3O)[C@H]3COC(=O)[C@H]23)OCO4)cc(OC)c1O [Etoposide (2), Etoposide]  1.28
5. CC(C)COCC(CN(Cc1ccccc1)c1ccccc1)N1CCCC1 (centres unmarked) [Bepridil (28), Bepridil]  1.75
6. N.N.O=C([O-])C1(C(=O)[O-])CCC1.[Pt+2] [Carboplatin (3), Carboplatin]  5.08
7. Cl.Cl.OCCN1CCN(CC/C=C2/c3ccccc3Sc3ccc(C(F)(F)F)cc32)CC1 [cis-(Z)-Flupenthixol (7), cis-(Z)-Flupenthixol]  5.93
8. CN1CCN(c2nc3cc(C(F)(F)F)ccc3n3cccc23)CC1.O=C(O)/C=C\C(=O)O [CGS-12066A (40)]  7.17
9. CC1=C(/C=C/C(C)=C/C=C/C(C)=C/C(=O)Nc2ccc(O)cc2)C(C)(C)CCC1 [Fenretinide (11), Retinoic acid p-hydroxyanilide]  7.18
10. Oc1ccc(-c2nc(-c3ccc(F)cc3)c(-c3ccncc3)[nH]2)cc1 [SB 202190 (13)]  8.04
11. O[Si](CCCN1CCCCC1)(c1ccc(F)cc1)C1CCCCC1 (centres unmarked) [p-F-HHSiD (8), p-fluoro-hexahydrosila-difenidol]  13.2
12. CC(C(O)c1ccc(O)cc1)N1CCC(Cc2ccccc2)CC1 (centres unmarked) [Ifenprodil (9), Ifenprodil]  17.9
13. CCN(CC)CCOCCOC(=O)C1(c2ccccc2)CCCC1 [Carbetapentane (10), Carbetapentane]  37.3
14. COc1cc(CNC(=O)CCCCCCC(C)C)ccc1O [Dihydrocapsaicin (15), Dihydrocapsaicin]  192

With OCCN1CCN(CCCN2c3ccccc3Sc3ccc(Cl)cc32)CC1 [Perphenazine (26), Perphenazine] the “Neurosphere Specificity” value was greater than 4.
With COc1cc2ncnc(Nc3ccc(O)cc3)c2cc1OC [WHI-P131 (12), 4-(4′-hydroxylphenyl)-amino-6,7-dimethoxyquinazoline] the “Neurosphere Specificity” value was greater than 10.

Same assay, conditions: Mus musculus, C8-D1A, read-out: Astrocyte EC50

C[C@@H]1C[C@@H]([C@H](O)CC2CC(=O)NC(=O)C2)C(=O)[C@@H](C)C1 [Cycloheximide (1), Cycloheximide] was tested, and the EC50 was 0.071 µM.

Same assay, conditions: Mus musculus, C8-D1A, read-out: EC 50% Astrocyte

C[C@@H]1C[C@@H]([C@H](O)CC2CC(=O)NC(=O)C2)C(=O)[C@@H](C)C1 [Cycloheximide (1), Cycloheximide] was tested, and the EC50 was 0.0711 µM.

Same assay, conditions: Mus musculus, C8-D1A, read-out: EC 50% Astrocyte; Table 5

In order of rising EC50:
1. S=C=Nc1cccc(C2(N3CCCCC3)CCCCC2)c1 [Metaphit (35), Metaphit]  3.62 µM
2. CC(C(O)c1ccc(O)cc1)N1CCC(Cc2ccccc2)CC1 (centres unmarked) [Ifenprodil (9), Ifenprodil]  11.1 µM

Same assay, conditions: Mus musculus, C8-D1A; Table 8; read-out: Astrocyte EC50

Work on S=C=Nc1cccc(C2(N3CCCCC3)CCCCC2)c1 [Metaphit (35), Metaphit] yielded an EC50 of 3.62 µM.

Same assay, conditions: Mus musculus; C8-D1A astrocytes, MTT; read-out: Astrocyte EC50

Work on CC(C(O)c1ccc(O)cc1)N1CCC(Cc2ccccc2)CC1 (centres unmarked) [Ifenprodil (9), Ifenprodil] yielded an EC50 of 11.1 µM.

Same assay, conditions: Table 8; read-out: Astrocyte EC50

Compound N.N.O=C([O-])C1(C(=O)[O-])CCC1.[Pt+2] [Carboplatin (3), Carboplatin] has an EC50 of 2.45 µM.

Same assay, conditions: read-out: Astrocyte EC50

With “(R)-(−)-Propylnorapomorphine [(R)-(−)-Propylnorapomorphine (5)]” the EC50 was 8.23 µM.

Same assay, conditions: read-out: EC 50% Astrocyte

Compound “(R)-(−)-Propylnorapomorphine [(R)-(−)-Propylnorapomorphine (5)]” has an EC50 of 8.23 µM.

Same assay, conditions: read-out: EC 50% Astrocyte; Table 5

With N.N.O=C([O-])C1(C(=O)[O-])CCC1.[Pt+2] [Carboplatin (3), Carboplatin] the EC50 was 2.45 µM.
